Results on 89 compounds are retold here after PMC4336329 (PLoS ONE, 2015).

Out of some 310,000 compounds screened, about 2,200 (0.71%) showed an effect of 50% or more. Effects have a minus sign here. This is one part of the list.

Sequence of human ether-à-go-go-related gene (hERG) potassium channel (Q12809 whole entry, looked up): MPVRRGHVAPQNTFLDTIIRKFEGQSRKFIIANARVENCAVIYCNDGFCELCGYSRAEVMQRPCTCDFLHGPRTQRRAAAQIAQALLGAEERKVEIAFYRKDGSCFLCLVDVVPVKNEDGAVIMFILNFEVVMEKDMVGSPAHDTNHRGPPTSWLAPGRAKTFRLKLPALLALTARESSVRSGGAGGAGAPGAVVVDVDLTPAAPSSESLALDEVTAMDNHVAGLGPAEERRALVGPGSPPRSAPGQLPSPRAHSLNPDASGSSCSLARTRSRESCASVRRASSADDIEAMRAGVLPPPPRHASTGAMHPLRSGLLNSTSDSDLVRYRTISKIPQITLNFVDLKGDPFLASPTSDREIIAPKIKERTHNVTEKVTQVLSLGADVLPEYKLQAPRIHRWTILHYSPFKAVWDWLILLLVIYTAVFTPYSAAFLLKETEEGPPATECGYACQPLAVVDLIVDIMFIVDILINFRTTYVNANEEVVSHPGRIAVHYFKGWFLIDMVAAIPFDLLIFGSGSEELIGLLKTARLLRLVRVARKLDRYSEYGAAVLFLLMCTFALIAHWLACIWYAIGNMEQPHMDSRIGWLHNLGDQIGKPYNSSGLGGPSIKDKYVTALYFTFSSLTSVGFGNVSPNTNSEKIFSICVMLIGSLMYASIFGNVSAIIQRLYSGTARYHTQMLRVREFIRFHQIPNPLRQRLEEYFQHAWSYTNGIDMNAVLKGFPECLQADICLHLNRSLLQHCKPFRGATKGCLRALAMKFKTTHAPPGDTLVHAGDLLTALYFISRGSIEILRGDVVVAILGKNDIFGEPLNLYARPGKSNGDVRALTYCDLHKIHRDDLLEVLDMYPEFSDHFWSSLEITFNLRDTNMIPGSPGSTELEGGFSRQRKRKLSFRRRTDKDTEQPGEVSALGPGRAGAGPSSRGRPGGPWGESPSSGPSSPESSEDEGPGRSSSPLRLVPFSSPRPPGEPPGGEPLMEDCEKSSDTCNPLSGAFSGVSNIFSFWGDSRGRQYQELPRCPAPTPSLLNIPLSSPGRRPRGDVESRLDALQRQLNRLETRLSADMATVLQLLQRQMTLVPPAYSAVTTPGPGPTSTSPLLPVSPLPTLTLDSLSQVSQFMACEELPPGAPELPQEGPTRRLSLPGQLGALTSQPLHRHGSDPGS

The assay has as its target human ether-à-go-go-related gene (hERG) potassium channel (human, UniProt Q12809). Nature of the assay: primary screen, population patch clamp on CHO cells stably expressing hERG.
Regarding `O=C(c1ccco1)N1CCC(c2nc(-c3ccc(F)cc3)no2)CC1`, the “hERG current change (%, negative = inhibition) at 1uM” value is -29.8%.

Consider `COc1ccc(C(=O)C2CCCN(S(=O)(=O)C(C)C)C2)c(C)c1` (centres unmarked), for which the “hERG current change (%, negative = inhibition) at 1uM” value amounted to 6.13%. Turning to `COc1cccc(C(=O)Nc2cccc3cccnc23)c1OC`, the “hERG current change (%, negative = inhibition) at 1uM” value is reported as 19.1%. Then `Cn1c(C(=O)OCC(=O)NCCc2ccccc2)cc2sccc21`, with 2%; and `CN1CCN(S(=O)(=O)c2ccc3c(c2)C(C)(C)C(=O)N3C)CC1`, with 14.3%; and `Nc1nc(-c2ccc(Cl)cc2)cn1N`, with 4.16%.

Take `CCOc1ccc(N(CC(=O)Nc2nccs2)S(=O)(=O)c2c(C)noc2C)cc1`: the “hERG current change (%, negative = inhibition) at 1uM” value was -7.09%. Turning to `Cc1ccc(/C=C(/NC(=O)c2ccccc2)C(=O)NC(Cc2c[nH]c3ccccc23)C(=O)O)cc1` (centres unmarked), the “hERG current change (%, negative = inhibition) at 1uM” value is listed as 8.26%.

Take `COc1ccccc1C1CCN(C(=O)c2ccc(Cl)cc2)CC1`: the “hERG current change (%, negative = inhibition) at 1uM” value worked out at 7.51%. With `CC1=NN(c2ccccc2)C(=O)/C1=C/c1c(O)n(-c2ccc(F)cc2)[nH]c1=O` the figure was 32.1%. `CCN(CC)CCCN(Cc1cc2cc(OC)ccc2[nH]c1=O)C(=O)Nc1ccccc1`: the “hERG current change (%, negative = inhibition) at 1uM” value is reported as -10.1%. Regarding `CCCCCCSc1nsc(NC(C)=O)n1`, the “hERG current change (%, negative = inhibition) at 1uM” value came out at 5.78%. With `Cc1cccc(NC2=C(NCCO)C(=O)c3ccccc3C2=O)c1` the figure was 5.16%; with `CCOC(=O)c1c(C)[nH]c(C)c1C(=O)COC(=O)c1cccc(S(=O)(=O)NC)c1`, 8.39%. With `CN(C)C1=NC(N(C)C)=NP(N(C)C)(N(C)C)=N1` the figure was 14.1%; with `CCN(CC)CC(=O)Nn1c(C)nc2c(ncn2-c2ccccc2)c1=O`, 9.39%; with `Cc1cc(C)n(CC(=O)n2c3c(c4ccccc42)CCCC3)n1`, 9.96%. With `COc1ccc(NS(=O)(=O)c2cccc(NC(=O)COc3ccc(OC)cc3)c2)cc1` the figure was 12.2%; with `O=C(Nc1ccc2ncccc2c1)c1ccccc1Br`, 13.5%; with `CCOc1ccc(/C=N/NC(=O)c2cc3c(OC)cccc3[nH]2)cc1`, 12.4%. As for `Cc1[nH]nc(N)c1-c1ccc(Cl)cc1`, the “hERG current change (%, negative = inhibition) at 1uM” value is 3.97%.

Consider `CC1Cc2ccccc2N1C(=S)NC(=O)c1ccc(Cl)cc1Cl` (centres unmarked), for which the “hERG current change (%, negative = inhibition) at 1uM” value was 1.56%. With `Cc1nc(NCCc2ccccc2)sc1C(=O)N(C)C` the figure was 7.75%. Then `Cc1nc2c3ccccc3nc(NNC(=O)CCC(=O)N3CCC(C)CC3)n2n1`, with 22.2%.

Turning to `Cc1ccc(Cl)cc1-n1c(O)c(C=NCCCN2CCOCC2)c(=O)[nH]c1=O`, the “hERG current change (%, negative = inhibition) at 1uM” value is recorded as 12.1%. Then `CCOC(=O)c1ccc(NC(=S)Nc2cccc(N)n2)cc1`, with 15.5%; and `COC(=O)c1cc(C#N)c(Oc2ccccc2OC)nc1C`, with 3.34%. With `CCOc1cc(/C=C2\SC(=N)N(c3nonc3N)C2=O)ccc1OCCN1CCOCC1` the figure was 14.5%; with `Cc1c(NC(=O)c2cc(-c3ccccc3)on2)c(=O)n(-c2ccccc2)n1C`, 2.95%; with `Cc1ccccc1Cn1cnc2ccccc21`, 6.15%. Then `COc1ccc(N2CCN(CCNC(=O)CCCn3c(=O)[nH]c4cc(Cl)ccc4c3=O)CC2)cc1`, with 2.84%; and `O=C(CNc1ccc(Br)cc1)NNC1=NCCC1`, with 3.45%; and `O=C(N/N=C/c1ccccc1OCc1ccccc1)c1cccnc1`, with 11.1%. With `Cc1noc(C)c1COC(=O)c1ccc(S(=O)(=O)NCc2ccco2)cc1`, the “hERG current change (%, negative = inhibition) at 1uM” value is given as -1.54%. Then `CC(=O)Nc1nnc(SCC(=O)N2CCc3ccccc32)s1`, with 18.1%; and `O=C(NNc1nc2c(F)cccc2s1)c1ccccc1`, with 14.5%. With `Cn1cc([N+](=O)[O-])c(C(=O)Nc2ccc(Br)cn2)n1` the figure was -0.698%. Then `O=C(COCC(=O)NCc1ccccc1)NCc1ccccc1`, with 0.482%; and `NC(=S)N=Nc1c(O)n(CCCl)c2ccc(Br)cc12`, with -40.4%; and `CCCNC(=O)NC(=O)CSc1nc(C)cs1`, with 9.84%. Consider `Cc1cccc(CN2C(=O)/C(=C\c3ccc(C(=O)NCCN4CCOCC4)cc3)Sc3ccccc32)c1`, for which the “hERG current change (%, negative = inhibition) at 1uM” value is 10.6%. With `CC(OC(=O)Cn1c(C(F)(F)F)nc2ccccc21)C(N)=O` (centres unmarked) the figure was 18.4%. For `Cc1ccc(NC(=O)COC(=O)c2cc(Cl)ccc2Cl)c(Br)c1`, the “hERG current change (%, negative = inhibition) at 1uM” value is listed as 11.5%. Then `CCOc1cc(NC(=O)c2ccccn2)c(OCC)cc1NC(=O)c1ccc(Cl)cc1`, with 17.8%; and `COc1cc(C(C)=O)ccc1OC(=O)c1cc2cccc(OC)c2oc1=O`, with 7.6%.

As to `CCOC(=O)Cc1csc(NC(=O)CSc2ccc(Br)cc2)n1`, the “hERG current change (%, negative = inhibition) at 1uM” value is 10.5%. With `CNC(=O)c1cc2cc(OC)ccc2oc1=N` the figure was 10.9%; with `CCc1cccc(NC(=O)C2CCN(S(=O)(=O)c3cccs3)CC2)c1`, 12.4%. Consider `Cc1ccc(C(=O)NCC(=O)NNC(=O)CN(C)S(=O)(=O)c2ccc(Cl)cc2)s1`, for which the “hERG current change (%, negative = inhibition) at 1uM” value is 2.5%. For the compound `Cc1cccc(CSc2nc3c(c(=O)[nH]2)CCC3)c1`, the “hERG current change (%, negative = inhibition) at 1uM” value was -8.39%. Turning to `COc1ccc(S(=O)(=O)Cc2ccc(C(=O)NCC(OC)OC)o2)cc1`, the “hERG current change (%, negative = inhibition) at 1uM” value is on record as 16.5%.

For the compound `CCCc1sc(N)nc1-c1ccc(Cl)cc1`, the “hERG current change (%, negative = inhibition) at 1uM” value amounted to 18.4%. Turning to `Cc1ccccc1Cc1c(C)nc2c(C(=O)NCc3ccc4c(c3)OCO4)cnn2c1C`, the “hERG current change (%, negative = inhibition) at 1uM” value is -3.77%. Then `COC(=O)C1=NN(c2cccc(C)c2)C2C(=O)N(c3ccccc3OC)C(=O)C12` (centres unmarked), with 7.06%. Turning to `CC(C)Cn1cnc2c(=O)oc3ccccc3c21`, the “hERG current change (%, negative = inhibition) at 1uM” value is listed as 1.73%. Then `[O-]c1ccccc1-[n+]1c(-c2ccccc2)cc(-c2ccccc2)cc1-c1ccccc1`, with -7.12%; and `O=C(COc1ccccc1Cl)c1ccc[nH]1`, with 10.3%; and `O=C(CC1C(=O)N(c2ccc(Cl)cc2)C(=S)N1CCc1ccncc1)Nc1ccc(F)cc1` (centres unmarked), with 6.64%. With `Cc1cc(-c2nn(-c3ccccc3F)cc2CN2CCCC(CO)C2)c(C)s1` (centres unmarked) the figure was 5.13%; with `O=C(NCC(c1cccnc1)N1CCN(c2ccccc2)CC1)c1ccc2c(c1)OCO2` (centres unmarked), -0.194%; with `O=C(NNC(=O)c1ccccc1Cl)c1ccc(-n2cncn2)c([N+](=O)[O-])c1`, 2.34%. With `C=CCn1c(SCC(=O)NC(=O)NC)nnc1C1CCCCC1` the figure was 9.82%. With `Cc1cc(CN(C)C)c(O)c(C2(C)CCCCC2)c1`, the “hERG current change (%, negative = inhibition) at 1uM” value amounted to 10.5%.

`CC(Sc1ccc(S(=O)(=O)N(C)C)cn1)C(=O)NC1CCCC1` (centres unmarked): the “hERG current change (%, negative = inhibition) at 1uM” value was found to be 4.75%. As for `Cc1ccc(C#CC[N+]2(C)CCCCC2)cc1.[Br-]`, the “hERG current change (%, negative = inhibition) at 1uM” value came out at 14.2%.

In the case of `COc1ccc(S(=O)(=O)N2CCCCCC2)cc1C(=O)N(C)CC(=O)Nc1ccc(F)cc1`, the “hERG current change (%, negative = inhibition) at 1uM” value stood at 4.43%.

On to `CN(CCCNC(=O)C1CCN(S(=O)(=O)N2CCC3(CC2)OCCO3)CC1)Cc1ccccc1`, for which the “hERG current change (%, negative = inhibition) at 1uM” value is reported as 12.6%. For `CCN(CC)C(=O)Cn1cc(C(=O)C(=O)NCCCN2CCOCC2)c2ccccc21`, the “hERG current change (%, negative = inhibition) at 1uM” value was determined as 7.79%. With `CC(C)n1c(O)c(N=NC(=O)c2ccccc2NS(=O)(=O)c2cccs2)c2ccccc21` the figure was 3.74%; with `Cc1cc(C)n(-c2nc3c(c(=O)[nH]c(=O)n3C)n2C)n1`, 5.33%. In the case of `COc1ccc(CC(=O)N2CCN(c3ccccn3)CC2)cc1`, the “hERG current change (%, negative = inhibition) at 1uM” value came out at 15.2%.

`Cn1nccc1C(=O)N1CCCC(C(=O)c2cccc3ccccc23)C1` (centres unmarked): the “hERG current change (%, negative = inhibition) at 1uM” value is 10.1%. With `COc1ccc(NC(=O)CSc2nnc(C3CCCCC3)n2N)cc1`, the “hERG current change (%, negative = inhibition) at 1uM” value amounted to 13.2%. Then `COc1ccc2cc(-c3[nH]ncc3CN3CCCN(c4ccccc4)CC3)ccc2c1`, with 5.8%; and `CC(=O)c1cccc(NC(=O)C2CCCN(S(=O)(=O)c3ccc(F)cc3)C2)c1` (centres unmarked), with 8.41%. With `N#Cc1ccccc1CSc1nnc(-c2ccncc2)o1` the figure was 7.24%. Then `COCCOC(=O)C1=C(C)NC2=C(C(=O)CCC2)C1c1cc2c(cc1Br)OCO2` (centres unmarked), with 0.113%; and `Cc1ccc(C(=O)OCC(=O)Nc2sc3c(c2C#N)CCCCC3)cc1NC(=O)c1ccco1`, with -2.73%.

Consider `Cc1c(NC(=O)C(C)OC(=O)c2ncc(Cl)c(Cl)c2Cl)c(=O)n(-c2ccccc2)n1C` (centres unmarked), for which the “hERG current change (%, negative = inhibition) at 1uM” value came out at 13.1%. With `Cc1ccc(S(=O)(=O)N(C)C)cc1NC(=O)c1cc(=O)c2ccccc2o1` the figure was 11.5%; with `Cc1ccc([N+](=O)[O-])c(OCCN2CCC(Cc3ccccc3)CC2)c1.O=C(O)C(=O)O`, -25.9%; with `CCOCCCNC(=O)C1CCC(CNS(=O)(=O)c2cccc3nsnc23)CC1` (centres unmarked), -7.94%.

Consider `COC(=O)Cn1c(=O)c2c(nc3n2CC(C)CN3Cc2ccccc2)n(C)c1=O` (centres unmarked), for which the “hERG current change (%, negative = inhibition) at 1uM” value is -0.484%. With `CC(C)N(C(=O)COC(=O)c1ccc(Cl)s1)c1ccccc1` the figure was -2.67%; with `CN(C/C=C/c1ccccc1)C1CCCCC1`, -1.67%. With `O=C(O)c1oc2ccccc2c1-n1cccc1` the figure was 20.9%; with `COc1ccccc1-n1c(C)nc2cc(C(=O)O)ccc21`, 11.4%; with `CN(C)S(=O)(=O)c1ccc(N2CCCC2)c(C(=O)Nc2nc3ccc(F)cc3s2)c1`, 2.58%.

In the case of `FC(F)(F)c1ccc2nnc(-c3c(Cl)cccc3Cl)n2c1`, the “hERG current change (%, negative = inhibition) at 1uM” value came out at 1.13%.
